Experimental data reported in the supplement of paper PMC8948288.
The sequences are guide strands of siRNAs; only the seed at positions 2 to 7 varies.

Legend:
H4 = assay: cell viability relative to siNT1 (ATP content); H4 human neuroglioma and GL261 mouse glioma; higher = less toxic; details: siRNA concentration 10 nM; 96 h; human
GL261 = assay: as above; details: siRNA concentration 25 nM; 96 h; mouse
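Note: cells reverse transfected with siRNA duplexes via lipid reagent, ATP read by luminescence, triplicate wells, values scaled to mean viability with non-targeting control siNT1.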

UGGAUCUACAUGUAAACCA was tested, and the cell viability (H4) was 30.8% and the cell viability (GL261) was 26.2%.
Work on UGGAUGAACAUGUAAACCA yielded a cell viability (H4) of 66.7% and a cell viability (GL261) of 45.5%.
With UGGAUGCACAUGUAAACCA the cell viability (H4) was 22.9% and the cell viability (GL261) was 17.4%.
UGGAUGGACAUGUAAACCA was tested, and the cell viability (H4) was 19.4% and the cell viability (GL261) was 12.4%.
For UGGAUGUACAUGUAAACCA, the cell viability (H4) was 91% and the cell viability (GL261) was 45.8%.
UGGAUUAACAUGUAAACCA gave a cell viability (H4) of 90.9% and a cell viability (GL261) of 59.9%.
UGGAUUCACAUGUAAACCA was tested, and the cell viability (H4) was 86% and the cell viability (GL261) was 46.5%.
UGGAUUGACAUGUAAACCA was tested, and the cell viability (H4) was 81.3% and the cell viability (GL261) was 66.3%.
In the case of UGGAUUUACAUGUAAACCA, the cell viability (H4) was 86.9% and the cell viability (GL261) was 80%.
UGGCAAAACAUGUAAACCA gave a cell viability (H4) of 92.7% and a cell viability (GL261) of 21.8%.
In the case of UGGCAACACAUGUAAACCA, the cell viability (H4) was 61.5% and the cell viability (GL261) was 36%.
UGGCAAGACAUGUAAACCA gave a cell viability (H4) of 62.6% and a cell viability (GL261) of 29.1%.
For UGGCAAUACAUGUAAACCA, the cell viability (H4) was 64.8% and the cell viability (GL261) was 18.9%.
With UGGCACAACAUGUAAACCA the cell viability (H4) was 34.1% and the cell viability (GL261) was 13.7%.
For UGGCACCACAUGUAAACCA, the cell viability (H4) was 32.6% and the cell viability (GL261) was 19.4%.
UGGCACGACAUGUAAACCA showed a cell viability (H4) of 76.6% and a cell viability (GL261) of 17%.
For UGGCACUACAUGUAAACCA, the cell viability (H4) was 33.8% and the cell viability (GL261) was 5.72%.
Sequence UGGCAGAACAUGUAAACCA has a cell viability (H4) of 37.6% and a cell viability (GL261) of 8.94%.
For UGGCAGCACAUGUAAACCA, the cell viability (H4) was 6.46% and the cell viability (GL261) was 7.25%.
UGGCAGGACAUGUAAACCA showed a cell viability (H4) of 4.74% and a cell viability (GL261) of 11.7%.
Sequence UGGCAGUACAUGUAAACCA has a cell viability (H4) of 23.1% and a cell viability (GL261) of 8.7%.
Work on UGGCAUAACAUGUAAACCA yielded a cell viability (H4) of 83.7% and a cell viability (GL261) of 27.5%.
UGGCAUCACAUGUAAACCA gave a cell viability (H4) of 26.6% and a cell viability (GL261) of 14%.
Sequence UGGCAUGACAUGUAAACCA has a cell viability (H4) of 38.2% and a cell viability (GL261) of 15%.
Work on UGGCAUUACAUGUAAACCA yielded a cell viability (H4) of 78.5% and a cell viability (GL261) of 15.3%.
In the case of UGGCCAAACAUGUAAACCA, the cell viability (H4) was 48.5% and the cell viability (GL261) was 50.8%.
Sequence UGGCCACACAUGUAAACCA has a cell viability (H4) of 5.09% and a cell viability (GL261) of 23.6%.
For UGGCCAGACAUGUAAACCA, the cell viability (H4) was 23.7% and the cell viability (GL261) was 41.2%.
With UGGCCAUACAUGUAAACCA the cell viability (H4) was 5.6% and the cell viability (GL261) was 38.8%.
Sequence UGGCCCAACAUGUAAACCA has a cell viability (H4) of 50.6% and a cell viability (GL261) of 26.9%.
In the case of UGGCCCCACAUGUAAACCA, the cell viability (H4) was 27.1% and the cell viability (GL261) was 20.6%.
With UGGCCCGACAUGUAAACCA the cell viability (H4) was 86.2% and the cell viability (GL261) was 20.3%.
UGGCCCUACAUGUAAACCA gave a cell viability (H4) of 21.5% and a cell viability (GL261) of 16.9%.
Work on UGGCCGAACAUGUAAACCA yielded a cell viability (H4) of 45.2% and a cell viability (GL261) of 37.4%.
In the case of UGGCCGCACAUGUAAACCA, the cell viability (H4) was 7.25% and the cell viability (GL261) was 11%.
Sequence UGGCCGGACAUGUAAACCA has a cell viability (H4) of 8.21% and a cell viability (GL261) of 26.8%.
In the case of UGGCCGUACAUGUAAACCA, the cell viability (H4) was 20.4% and the cell viability (GL261) was 22.9%.
Work on UGGCCUAACAUGUAAACCA yielded a cell viability (H4) of 36.2% and a cell viability (GL261) of 66.4%.
Work on UGGCCUCACAUGUAAACCA yielded a cell viability (H4) of 27.7% and a cell viability (GL261) of 17.3%.
In the case of UGGCCUGACAUGUAAACCA, the cell viability (H4) was 45.2% and the cell viability (GL261) was 29.8%.
With UGGCCUUACAUGUAAACCA the cell viability (H4) was 26.4% and the cell viability (GL261) was 43.7%.
UGGCGAAACAUGUAAACCA was tested, and the cell viability (H4) was 93.2% and the cell viability (GL261) was 19.8%.
In the case of UGGCGACACAUGUAAACCA, the cell viability (H4) was 47.8% and the cell viability (GL261) was 9.86%.
Sequence UGGCGAGACAUGUAAACCA has a cell viability (H4) of 17.9% and a cell viability (GL261) of 14.3%.
UGGCGAUACAUGUAAACCA gave a cell viability (H4) of 29.3% and a cell viability (GL261) of 16.3%.
UGGCGCAACAUGUAAACCA gave a cell viability (H4) of 65.5% and a cell viability (GL261) of 13.8%.
UGGCGCCACAUGUAAACCA showed a cell viability (H4) of 27.5% and a cell viability (GL261) of 14.9%.
In the case of UGGCGCGACAUGUAAACCA, the cell viability (H4) was 64.4% and the cell viability (GL261) was 26.5%.
UGGCGCUACAUGUAAACCA showed a cell viability (H4) of 70.1% and a cell viability (GL261) of 12.4%.
In the case of UGGCGGAACAUGUAAACCA, the cell viability (H4) was 43% and the cell viability (GL261) was 10.4%.
Work on UGGCGGCACAUGUAAACCA yielded a cell viability (H4) of 26.4% and a cell viability (GL261) of 4.61%.
UGGCGGGACAUGUAAACCA showed a cell viability (H4) of 7.21% and a cell viability (GL261) of 8.26%.
Sequence UGGCGGUACAUGUAAACCA has a cell viability (H4) of 21% and a cell viability (GL261) of 18.6%.
In the case of UGGCGUAACAUGUAAACCA, the cell viability (H4) was 89.6% and the cell viability (GL261) was 28%.
In the case of UGGCGUCACAUGUAAACCA, the cell viability (H4) was 71.9% and the cell viability (GL261) was 34.6%.
Sequence UGGCGUGACAUGUAAACCA has a cell viability (H4) of 61.4% and a cell viability (GL261) of 32.4%.
UGGCGUUACAUGUAAACCA showed a cell viability (H4) of 74.3% and a cell viability (GL261) of 32%.
For UGGCUAAACAUGUAAACCA, the cell viability (H4) was 59.3% and the cell viability (GL261) was 48.7%.
With UGGCUACACAUGUAAACCA the cell viability (H4) was 47.1% and the cell viability (GL261) was 21.2%.
